In a compilation of properties of binary mixtures (doi:10.1016/j.molliq.2021.116049):
Some of these densities may be calculated back from excess volumes.

Assay: xn = mol fraction of the nth substance listed
Conditions: 100 kPa

CC[n+]1ccn(C)c1.O=S(=O)([N-]S(=O)(=O)C(F)(F)F)C(F)(F)F + CC[n+]1ccn(C)c1.F[B-](F)(F)F
mass density [kg/m3]
Conditions | 283.15 K | 288.15 K | 293.15 K | 298.15 K | 303.15 K | 308.15 K | 313.15 K
x2 = 0.046 | 1557 | 1552 | 1547 | 1542 | 1537 | 1531 | 1526
x2 = 0.0996 | 1547 | 1542 | 1537 | – | 1526 | 1521 | 1516
x2 = 0.2134 | – | 1520 | 1514 | 1509 | 1504 | 1499 | 1493
x2 = 0.2947 | 1508 | 1503 | 1497 | 1492 | 1487 | 1482 | 1476
x2 = 0.3985 | 1484 | 1479 | – | 1469 | 1463 | – | –
x2 = 0.4971 | 1460 | – | 1450 | 1445 | – | 1434 | 1429
x2 = 0.6016 | 1431 | 1426 | 1422 | 1417 | 1412 | 1407 | 1402
x2 = 0.6974 | 1403 | 1398 | – | 1389 | 1384 | 1379 | –
x2 = 0.8024 | 1368 | 1364 | 1359 | 1355 | – | – | 1341.3
x2 = 0.9142 | 1327 | 1322.9 | 1318.7 | 1314.5 | 1310.4 | 1306.3 | 1302.2
x2 = 0.9347 | – | 1314.8 | 1310.6 | 1306.6 | 1302.5 | 1298.5 | 1294.5
